Laboratory results reported in PubChem BioAssay AID485344 (National Center for Advancing Translational Sciences (NCATS), 2010).
Among all 340,000 compounds or so, about 6,900 (2%) were called active. Cut-off read from the data, not from the text of the source: active = inhibition above about 30%; inactive = below that, where a call was filed. This is a selection; strong and weak results do not stand in their true shares. The source gives no active or inactive call for entries shown without one.
Note: 0% is about no effect.

These compounds were tested against D(2) dopamine receptor (Homo sapiens) (UniProt P14416) (assay: HTS Assay for Allosteric Antagonists of the Human D2 Dopamine Receptor: Primary Screen for Antagonists). Conditions: HEK293 TREx D2 cells, calcium flux, dopamine EC80; at 10 µM; stronger effect = higher value.
UniProt P14416, sequence (P14416 whole entry, looked up): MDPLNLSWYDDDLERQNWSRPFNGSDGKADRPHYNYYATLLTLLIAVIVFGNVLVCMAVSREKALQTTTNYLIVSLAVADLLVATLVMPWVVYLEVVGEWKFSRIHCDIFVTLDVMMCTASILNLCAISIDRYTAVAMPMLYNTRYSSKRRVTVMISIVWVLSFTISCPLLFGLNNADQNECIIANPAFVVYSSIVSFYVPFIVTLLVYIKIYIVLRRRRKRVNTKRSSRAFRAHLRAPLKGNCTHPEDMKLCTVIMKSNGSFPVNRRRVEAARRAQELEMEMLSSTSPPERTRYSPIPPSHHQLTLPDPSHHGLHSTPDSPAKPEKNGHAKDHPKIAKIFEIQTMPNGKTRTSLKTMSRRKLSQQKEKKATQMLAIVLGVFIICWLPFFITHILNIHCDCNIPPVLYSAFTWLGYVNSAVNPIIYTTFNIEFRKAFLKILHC
Procedure, shortened: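 Compounds are added to dye-loaded, induced HEK293 T-REx cells coupled to calcium release via D2; after a 3 min kinetic read an EC80 dopamine stimulus is given and fluorescence is recorded for 3 more min.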
Compound `CCOc1cccc(C(=O)Nc2ccc(-c3nc4ncccc4o3)cc2C)c1` has an inhibition of 11.3%.
`CCOC(=O)c1ccccc1NC(=O)c1sc2nc3n(c(=O)c2c1C)CCCCC3` showed an inhibition of 17.3%.
`CN(C)S(=O)(=O)N(CC(=O)NCCSCc1c(F)cccc1Cl)c1ccccc1` gave an inhibition of 16.6%.
Compound `COC(=O)c1c(NC(C)=O)c2c3c(sc2n1Cc1cc(C)ccc1C)CCCC3` has an inhibition of -5.82%.
`O=C(NCCN1CCN(c2ccccc2)CC1)C1CCN(S(=O)(=O)N2CCOCC2)CC1` was tested, and the inhibition was active: 60.6%.
Work on `O=c1[nH]c(SCc2c(F)cccc2Cl)nc2c1CCC2` yielded an inhibition of -15.5%.
`Cc1ccc(S(=O)(=O)N2CCC(N3CCN(Cc4ccccc4)C(=O)C3=O)CC2)cc1C` was tested, and the inhibition was 6.96%.
For `CCN(CC)S(=O)(=O)c1cccc(C(=O)Nc2ccccc2C(=O)Nc2ccc(Cl)cc2)c1`, the inhibition was 0.144%.
In the case of `Cc1ccc(-n2c(/C=C/c3c(C)n(C)c4ccccc34)nc3ccccc3c2=O)cc1`, the inhibition is reported as 1.98%.
`Cc1ccc(C)c(NS(=O)(=O)c2cc3c(cc2C)n(C)c(=O)c(=O)n3C)c1` was tested, and the inhibition was 8.78%.
With `CCOC(=O)c1c(NC(=O)Cc2coc3cc(C)cc(C)c23)sc2c1CCC2` the inhibition was 12.9%.
Work on `CC(=O)c1ccc(NC(=O)c2cc(C)nn2-c2ccccc2)cc1` yielded an inhibition of 0.0906%.
Compound `COCCN(CCOC)S(=O)(=O)c1ccc(C(=O)Nc2sc3c(c2C(=O)OC)CCN(C)C3)cc1` has an inhibition of -10.2%.
`CCOC(=O)N1CCc2c(sc3c2C(=O)NC(c2ccc(N(C)C)cc2)N3)C1` (configuration not stated) gave an inhibition of -1.09%.
`COC(=O)c1ccc2c(C)c(C(C)(C)O)[nH]c2c1` was tested, and the inhibition was active: 44.9%.
In the case of `CCCCOc1ccc(C2c3c(oc4ccc(C)cc4c3=O)C(=O)N2CCCN(C)C)cc1OCC` (configuration not stated), the inhibition is reported as -7.81%.
`CC(=O)NCCNC(=O)CCCn1c(=O)[nH]c2ccsc2c1=O` was tested, and the inhibition was 8.38%.
`Cc1ccc(-n2c(SCc3ccccc3F)nc3[nH]ncc3c2=O)cc1Cl` was tested, and the inhibition was 10.3%.
`CCc1cccc(NC(=O)Cn2c(C(=O)OC)cc3sc(Cl)cc32)c1` was tested, and the inhibition was -5.13%.
For `CCN(CC)CCNC(=O)C1CCN(C(=O)c2cnn(-c3ccccc3)c2-n2cccc2)CC1`, the inhibition was 11.3%.
In the case of `COc1ccc(CCn2nc(C)c([N+](=O)[O-])c2C)cc1`, the inhibition is reported as active: 32.3%.
In the case of `O=C(COC(=O)/C=C/C(=O)N1CCN(c2ccccc2)CC1)NC(c1ccccc1)c1ccccc1`, the inhibition is reported as active: 69.1%.
Compound `COc1cccc2cc(-c3nc(-c4ccccc4F)no3)c(=O)oc12` has an inhibition of -0.784%.
Compound `O=C(Nc1ccc(F)c(Cl)c1)c1ccc2c(Cl)c3c(nc2c1)CCCC3` has an inhibition of 2.29%.
With `CCOc1ccccc1CNC(=O)c1cc2c(=O)n(Cc3cccnc3)ccc2nc1C` the inhibition was -10.9%.
Work on `CCCCN(C)CC(O)Cn1cc(/C=C/C(=O)c2ccc(Br)cc2)c2ccccc21` (configuration not stated) yielded an inhibition of 2.13%.
Compound `CCCS(=O)(=O)N1CC(=O)N(c2cccc(Cl)c2)C(C)(C(=O)NC2CCCCC2)C1` (configuration not stated) has an inhibition of -9.84%.
